B1: PhoQ; a variant is named by its letters at X, in order, P23837 (parent)
chain: MKKLLRLFFPLSLRVRFLLATAAVVLVLSLAYGMVALIGYSVSFDKTTFRLLRGESNLFYTLAKWENNKLHVELPENIDKQSPTMTLIYDENGQLLWAQRDVPWLMKMIQPDWLKSNGFHEIEADVNDTSLLLSGDHSIQQQLQEVREDDDDAEMTHSVAVNVYPATSRMPKLTIVVVDTIPVELKSSYMVWSWFIYVLSANLLLVIPLLWVAAWWSLRPIEALAKEVRELEEHNRELLNPATTRELTSLVRNLNRLLKSERERYDKYRTTLTDLTHSLKTPLXXLQXXLRSLRSEKMSVSDAEPVMLEQISRISQQIGYYLHRASMRGGTLLSRELHPVAPLLDNLTSALNKVYQRKGVNISLDISPEISFVGEQNDFVEVMGNVLDNACKYCLEFVEISARQTDEHLYIVVEDDGPGIPLSKREVIFDRGQRVDTLRPGQGVGLAVAREITEQYEGKIVAGESMLGGARMEVIFGRQHSAPKDE

This is one part of the list.

In this assay the parent is B1. Nature of the assay: enrichment ratio after two sorts for PhoP signalling (ratio (wild type AVST 3.29)); higher = more functional. Particulars: with PhoP (E. coli).
In the case of PCWT, the enrichment ratio was no more than 0.25.

As to FYHI, the enrichment ratio was no more than 0.25.

Regarding NGNR, the enrichment ratio was no more than 0.25.

With TALW, the enrichment ratio was no more than 0.25.

Consider TDWV, for which the enrichment ratio was no more than 0.25.

ILFT: the enrichment ratio is no more than 0.25.

As for WLGI, the enrichment ratio is no more than 0.25.

Regarding PETI, the enrichment ratio is no more than 0.25.

For MMWI, the enrichment ratio is no more than 0.25.

RMCA: the enrichment ratio is no more than 0.25.

As to WVRM, the enrichment ratio is no more than 0.25.

As to IKSA, the enrichment ratio is no more than 0.25.

Turning to HEES, the enrichment ratio was no more than 0.25.

With FNAW, the enrichment ratio is no more than 0.25.

On to TFEV, for which the enrichment ratio is no more than 0.25.

Regarding HFRY, the enrichment ratio was no more than 0.25.

Consider VAVA, for which the enrichment ratio is no more than 0.25.

With AWLR, the enrichment ratio was no more than 0.25.

KQRM: the enrichment ratio was no more than 0.25.

For FYRM, the enrichment ratio is no more than 0.25.

ELMD: the enrichment ratio is no more than 0.25.

On to RPPS, for which the enrichment ratio was no more than 0.25.

MGYP: the enrichment ratio is no more than 0.25.

Take IHNR: the enrichment ratio is no more than 0.25.

As for SHHV, the enrichment ratio is no more than 0.25.

With YQSP, the enrichment ratio is no more than 0.25.

Take SSTG: the enrichment ratio is 12.4.

On to ANYH, for which the enrichment ratio is 0.253.

DHRR: the enrichment ratio was no more than 0.25.

For the variant HYLR, the enrichment ratio was no more than 0.25.

On to FQQP, for which the enrichment ratio was 0.586.

Take MKEY: the enrichment ratio was no more than 0.25.

For the variant NYFS, the enrichment ratio is no more than 0.25.

Take QHLN: the enrichment ratio is no more than 0.25.

Regarding AFWY, the enrichment ratio is no more than 0.25.

In the case of QIFH, the enrichment ratio was no more than 0.25.

Regarding PRMW, the enrichment ratio was no more than 0.25.

Turning to DFHY, the enrichment ratio was no more than 0.25.

Turning to FARD, the enrichment ratio turned out to be 0.433.

Regarding PFTF, the enrichment ratio is no more than 0.25.

Take QHRP: the enrichment ratio is no more than 0.25.

As to GIMY, the enrichment ratio is no more than 0.25.

Turning to TDWS, the enrichment ratio was no more than 0.25.

Turning to DEPK, the enrichment ratio was no more than 0.25.

In the case of DHWC, the enrichment ratio is no more than 0.25.

For the variant NSSP, the enrichment ratio is no more than 0.25.

On to VSRH, for which the enrichment ratio is no more than 0.25.

Turning to NKAS, the enrichment ratio was no more than 0.25.

Regarding SCME, the enrichment ratio was determined as 7.25.

On to SGDL, for which the enrichment ratio is no more than 0.25.

For EECF, the enrichment ratio was no more than 0.25.

QCLG: the enrichment ratio stood at 2.4.

Take VQHK: the enrichment ratio is no more than 0.25.

Regarding LKHG, the enrichment ratio is no more than 0.25.

For the variant TIGS, the enrichment ratio is 15.

With FRCV, the enrichment ratio is no more than 0.25.

In the case of MTFL, the enrichment ratio was 6.57.

Consider FYTQ, for which the enrichment ratio was no more than 0.25.

Consider TMPV, for which the enrichment ratio was no more than 0.25.

Regarding LPRT, the enrichment ratio is no more than 0.25.

Turning to QCRF, the enrichment ratio was no more than 0.25.

Take LGDF: the enrichment ratio is no more than 0.25.

As for GAGN, the enrichment ratio is no more than 0.25.

Take QRGG: the enrichment ratio is no more than 0.25.

As to QLMC, the enrichment ratio was no more than 0.25.

Consider HACK, for which the enrichment ratio was no more than 0.25.

For FGRC, the enrichment ratio was no more than 0.25.

For the variant EMRD, the enrichment ratio was no more than 0.25.

As for DPGM, the enrichment ratio is no more than 0.25.

For MQFW, the enrichment ratio was no more than 0.25.

In the case of PSCC, the enrichment ratio is no more than 0.25.

In the case of NDAN, the enrichment ratio was no more than 0.25.

On to WETL, for which the enrichment ratio is no more than 0.25.

In the case of HEPS, the enrichment ratio is no more than 0.25.

Take HHQR: the enrichment ratio was no more than 0.25.

On to TRWK, for which the enrichment ratio is no more than 0.25.

As to PAHQ, the enrichment ratio is no more than 0.25.

As to FLRC, the enrichment ratio was no more than 0.25.

As to FTDN, the enrichment ratio is no more than 0.25.

For the variant TGNY, the enrichment ratio was 16.9.

On to YIYR, for which the enrichment ratio was no more than 0.25.

Regarding NLWN, the enrichment ratio was no more than 0.25.

Regarding HMGN, the enrichment ratio is no more than 0.25.

As for TITP, the enrichment ratio is no more than 0.25.

In the case of STFK, the enrichment ratio is no more than 0.25.

With DINV, the enrichment ratio was no more than 0.25.

As for IDCC, the enrichment ratio is no more than 0.25.

Regarding PWWY, the enrichment ratio is no more than 0.25.

As to WITI, the enrichment ratio was no more than 0.25.

YKAM: the enrichment ratio is no more than 0.25.

As to DWGN, the enrichment ratio was no more than 0.25.

As for LRMW, the enrichment ratio was no more than 0.25.

For IANC, the enrichment ratio is no more than 0.25.

In the case of ADHL, the enrichment ratio was no more than 0.25.

Regarding NMAF, the enrichment ratio is no more than 0.25.

As to EKRY, the enrichment ratio was no more than 0.25.

Take FNSG: the enrichment ratio is no more than 0.25.

Consider NCHC, for which the enrichment ratio was no more than 0.25.

Regarding DFVM, the enrichment ratio is no more than 0.25.

Turning to FDIH, the enrichment ratio is no more than 0.25.

Consider IYTN, for which the enrichment ratio is no more than 0.25.

Take GIVM: the enrichment ratio came to 3.78.

Take DYER: the enrichment ratio is no more than 0.25.

On to DMTY, for which the enrichment ratio was no more than 0.25.

Consider RHRP, for which the enrichment ratio was no more than 0.25.

As to FCIQ, the enrichment ratio was no more than 0.25.

Regarding HGST, the enrichment ratio was no more than 0.25.

On to LWLH, for which the enrichment ratio was no more than 0.25.

KVND: the enrichment ratio was no more than 0.25.

With IVDK, the enrichment ratio was no more than 0.25.

Turning to TWWR, the enrichment ratio was no more than 0.25.

As for RMVM, the enrichment ratio is no more than 0.25.

Consider RMFT, for which the enrichment ratio is no more than 0.25.

For VSKQ, the enrichment ratio is no more than 0.25.

On to KSGV, for which the enrichment ratio was no more than 0.25.

For the variant MEIN, the enrichment ratio came out at 11.2.

Consider GVIL, for which the enrichment ratio is 4.78.

With FDAE, the enrichment ratio was no more than 0.25.

As to HWEN, the enrichment ratio is no more than 0.25.

As for IIMT, the enrichment ratio was no more than 0.25.

As to KLEG, the enrichment ratio is no more than 0.25.

In the case of VNWK, the enrichment ratio is no more than 0.25.

As to DITE, the enrichment ratio is no more than 0.25.

With YSMQ, the enrichment ratio came out at 0.875.

As for GFVH, the enrichment ratio was no more than 0.25.

EFIL: the enrichment ratio is no more than 0.25.

Take NFIM: the enrichment ratio is no more than 0.25.

Turning to DEEC, the enrichment ratio is no more than 0.25.

With PMYR, the enrichment ratio was no more than 0.25.

For ITRS, the enrichment ratio is no more than 0.25.

For LRQD, the enrichment ratio is no more than 0.25.

As for KIWH, the enrichment ratio is no more than 0.25.

In the case of QMRM, the enrichment ratio is no more than 0.25.

On to FEGG, for which the enrichment ratio is no more than 0.25.

For HCLE, the enrichment ratio is no more than 0.25.

Turning to VRRW, the enrichment ratio worked out at 0.561.

As for VTAT, the enrichment ratio was no more than 0.25.

For LMKF, the enrichment ratio was no more than 0.25.

In the case of QRIP, the enrichment ratio is no more than 0.25.

Regarding KMQD, the enrichment ratio was no more than 0.25.

In the case of SMPH, the enrichment ratio is no more than 0.25.

With TACL, the enrichment ratio turned out to be 11.4.

Consider VAYH, for which the enrichment ratio was no more than 0.25.

Consider DDQY, for which the enrichment ratio was no more than 0.25.

As for FDFE, the enrichment ratio was no more than 0.25.

In the case of WPHN, the enrichment ratio is no more than 0.25.

Regarding SNMS, the enrichment ratio stood at 12.

For the variant MTRP, the enrichment ratio is no more than 0.25.

In the case of FRVD, the enrichment ratio was no more than 0.25.

With QTHW, the enrichment ratio is no more than 0.25.

With APRW, the enrichment ratio was no more than 0.25.

For MCNY, the enrichment ratio was no more than 0.25.

Consider TCMP, for which the enrichment ratio is no more than 0.25.

These data come from a collection of fitness landscapes (doi:10.1126/science.1257360).
